Test results as given in paper PMC12334862 (Journal of Neurochemistry, 2025).

Target: T1, > 5 MDa GephHO-Folch-CB2_(SH3-) complex (rat)
T1 construct: it elutes in the void volume (> 5 MDa); also called GephHO-CB2SH3- complex; high-molecular weight gephyrin-CB2SH3- complex; source: formed from purified E. coli proteins (GephHO, CB2SH3-) with Folch lipids in DDM micelles
Test: SEC; analytical SEC of LS-αβICD with GephHO, with CB2SH3- or with GephHO, Folch and CB2SH3-; SDS-PAGE of peak fractions (Figure S4D,E)
Details: both partners purified

B1: LS-αβICD (heteropentameric yeast lumazine synthase carrying the GlyR α1 and GlyR β intracellular cytosolic domains) (complex)
chain 1: not shown
chain 2: AVNFVSRQHKELLRFRRKRRHHKSPMLNLFQDDEGGEGRFNFSAYGMGPACLQAKDGISVKGANNNNTTNPAPAPSKSPEEMRKLFIQRAKKIDK
- band ratio of LS-αβICD within the void volume peak P1: 63%
